Measured values taken from the supplement of paper PMC3334620.
Over roughly 33,000 sequences, “E-score (-0.5 to 0.5)” has its median near -0.016; the highest 2% begin near 0.32. The list shows a part of the results.

Target: T1, Stp1 (UniProt B3LFK1)
T1 sequence: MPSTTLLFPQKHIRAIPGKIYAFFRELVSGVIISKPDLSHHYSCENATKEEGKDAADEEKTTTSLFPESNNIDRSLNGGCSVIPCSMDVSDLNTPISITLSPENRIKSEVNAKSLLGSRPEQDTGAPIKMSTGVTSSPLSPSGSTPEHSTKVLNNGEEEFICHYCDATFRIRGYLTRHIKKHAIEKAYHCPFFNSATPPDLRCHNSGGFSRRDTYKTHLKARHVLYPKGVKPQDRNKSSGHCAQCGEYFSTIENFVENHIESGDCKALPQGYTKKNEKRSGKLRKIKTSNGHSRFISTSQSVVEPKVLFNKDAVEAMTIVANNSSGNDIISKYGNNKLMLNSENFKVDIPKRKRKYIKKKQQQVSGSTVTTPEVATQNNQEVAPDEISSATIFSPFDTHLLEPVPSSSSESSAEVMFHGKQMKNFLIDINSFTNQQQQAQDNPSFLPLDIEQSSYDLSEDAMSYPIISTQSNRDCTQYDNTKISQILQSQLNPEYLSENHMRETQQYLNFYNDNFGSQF
Assay: PBM E-score (8-mer binding enrichment) (E-score (-0.5 to 0.5)); higher = stronger / more preferred TF binding; most listed sequences are background and not binding sites
Conditions: protein concentration: 200 nM; construct: GST-full length
Procedure, shortened: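 Bound GST-tagged yeast transcription factors, applied at about 100-200 nM to double-stranded universal all-10-mer Agilent arrays, were detected with fluorescent anti-GST. Scans were normalised with masliner. A modified Wilcoxon-Mann-Whitney statistic, the E-score, was assigned to each ungapped eight-base word pooled with its reverse complement by the Universal PBM Analysis Suite.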

Sequence | PBM E-score
ACTTTACA | -0.00342
CGCTCTAC | -0.0216
CTAAGGGC | -0.224
CGGCGGAG | 0.214
GCAATTTA | 0.185
AGAGTGCC | -0.0276
ATAATCAA | 0.193
ATTTGACA | 0.163
CCATCCGA | -0.146
AAACGCAT | -0.227
TATGATAA | 0.183
TCGGGAAA | 0.0247
GTCTAATA | -0.0272
ATGCGGCA | 0.467
CTCGACGA | -0.13
CCTGCTCG | -0.19
GCCAATCC | 0.0101
CTCAGGGA | -0.305
GATCGCTA | -0.256
GCACTGGA | -0.119
AAAGTAGA | -0.0863
AGACTCCC | -0.302
TGCCTCAA | -0.019
AAGGCTCG | -0.0294
CCCTTCGG | -0.0178

Sequence | PBM E-score
ACCGCGGC | 0.384
CAACCTGC | -0.109
ACTACCGC | 0.101
CGCCGGCC | 0.0744
ACGCTTCG | -0.0864
ATCTAGGC | -0.0831
TCACGAAA | 0.26
AGACTCCT | -0.19
CACTCCAC | -0.0378
GCAGTAGA | -0.0574
AAGCAAAG | -0.0154
AGATGCCC | 0.06
CTGTGTCA | 0.0251
CGTCTTTC | 0.0661
CGCTTATA | 0.171
ACTTTCTG | 0.0182
CGACGAAC | 0.00416
AGGTGGTA | -0.0803
ACGACCCT | -0.281
CACCTCTG | -0.245
CTCTCCAC | -0.267
AATCCAAC | -0.107
ACGTTTCT | -0.15
GCGAATGA | 0.281
CCTATTAC | -0.0831

Sequence | PBM E-score
CGCGATCA | 0.0494
ATTGCCTC | 0.218
CGATTGTA | 0.108
CAAGGGTA | -0.257
TGCACCAA | -0.0793
AACGTTGA | -0.00192
TATGTTCA | 0.0669
AGGCTGCC | -0.0437
CATACACC | -0.0591
AACACACG | 0.118
GCAAGGCA | 0.38
AGAGTTGC | 0.0899
ACGTGGCT | 0.0706
GGAAACAC | 0.147
CGGAGAGC | -0.0882
AGCTAAAT | -0.0323
ATATGGCC | -0.00502
GAAAACTA | 0.00141
CTCGATTA | 0.12
CGGGCGTC | -0.182
ACATTGTA | 0.0692
CACAGGCG | 0.0731
AAGCCAAT | -0.0635
TAACAAAA | 0.212
TCGTTGCA | -0.0803

Sequence | PBM E-score
GGCCACAC | 0.0354
GCAGATGC | 0.0938
AATGCTTG | -0.141
TTGCTAAA | -0.0568
GTCCGCCA | -0.128
AAACGTGA | -0.0114
AGCAGTTG | -0.0998
GCTCCCAA | -0.0914
ACTGGTAA | 0.0824
GCCGCAGA | 0.372
CATTTCAG | -0.0364
GCTCGCCA | -0.0796
GTCTGCGA | -0.0312
AGATGATC | -0.0784
AGTCGTCG | -0.233
CGTCATTC | 0.027
TGCAAGCA | -0.0579
CTAAGTGC | 0.0783
CCATAGGG | -0.0433
CGTGAAAG | 0.0861
ACTGCCCA | -0.0833
ACCAGCTA | -0.0313
ATTATCCC | -0.172
ATGCGCAA | 0.0361
AGTAGGCC | -0.0697

Sequence | PBM E-score
AACTGGTC | -0.143
GCCGCGTA | 0.465
AGAGGGTG | -0.242
CAGGCAGA | -0.0212
GTAGCTAA | -0.0438
CTAGCGGC | 0.073
CATGCTCA | -0.172
AGCCTTCG | -0.162
CATGCCTC | 0.264
ATCGTGGA | -0.044
GAAGCGAC | -0.0463
AAGCCTAT | 0.0334
CGAGGATA | -0.12
GGTTATAA | -0.0452
CAACCACG | 0.0433
CTGCAGGC | -0.372
GCTAAACA | 0.0697
CTATGCCA | -0.028
AAAGGCGT | 0.192
AACCAAGG | 0.138
GCCTCAAA | 0.00655
CTGGAGCC | -0.0112
AATGGGGT | -0.0681
ATCCTAGG | -0.101
CCTACAGA | -0.103

Sequence | PBM E-score
ACCCCGGT | -0.338
CTTAAGGC | 0.162
ATCGCTTC | 0.00562
GCAAACCA | 0.115
CGAGCACG | 0.0219
AGCGAGAT | 0.0004
GGTTAAAC | 0.0174
CGTAGTTC | 0.0178
ATTTGGGC | -0.203
GCCGAGGC | 0.357
ATCTAGGG | -0.15
TCCAACCA | -0.133
ATCGTGCC | 0.281
GACGTCTC | -0.169
GAGTGAAA | 0.0471
AGCACACC | -0.23
AACCAAAC | -0.241
ACCAAAAA | 0.218
ATTTAGGC | 0.112
CAGATCTC | -0.126
AGGCTCCC | -0.191
CCTTGCAC | 0.127
CTGAGCAA | -0.0665
CTGAAAAG | -0.0563
CCGTGGCC | 0.179

Sequence | PBM E-score
ATCCATGA | -0.224
CAGGACCA | -0.202
AGCCGAAG | -0.038
GAACGTTC | -0.216
ATTGCCAC | 0.112
AGCGATTA | -0.0409
GAGCGTAC | -0.208
GCCAATGA | -0.174
GACGCTGC | -0.0804
AGTTACCC | -0.115
CTACCAAC | 0.0028
CGTGAGGA | 0.00424
ACTCAACA | 0.103
GGACCGCA | -0.124
CTTACCGC | 0.0411
AGACGCAG | -0.0897
ACCCTAGA | -0.227
ACTAAAGA | 0.094
CAGTTTTA | -0.191
CGACGTAG | -0.258
ATGTACAG | -0.157
CAATTCGA | -0.0848
